Measurements from PubChem BioAssay AID504832 (National Center for Advancing Translational Sciences (NCATS), 2011).
Among all 310,000 compounds or so, about 18,000 (5.8%) were called active. Inconclusive means that the source gave no clear call. Such entries were picked first, then a sample of the others. Calls come from the whole dose curve; as a rule, active = well fitted inhibition curve with a large enough effect; inconclusive = small, poorly fitted or top-dose-only effect, or another doubt; inactive = no such curve, though single readings can be large or run the other way. No potency is given beside an inconclusive call; the fits are too rough.

Assay: Primary qHTS for delayed death inhibitors of the malarial parasite plastid, 48 hour incubation
Conditions: P. falciparum luciferase growth in erythrocytes; series mostly up to 28.7 µM; activity change, negative = inhibition: at the top concentration
Procedure, shortened: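 A one-generation exposure of luciferase-tagged malaria parasites in RPMI 1640/Albumax erythrocyte culture, 37 C and 5% CO2. Inhibition is inferred from decreased luminescence after adding detection reagent.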
% is set by controls: 0 for no effect and ±100 for the full control effect; potency is the fitted concentration of half-maximal effect; tags give direction and shape of the fitted curve.

| SMILES | Potency | activity change, negative = inhibition |
| --- | --- | --- |
| O=C(Nc1ccccc1)c1cc(N2CCOCC2)nc2ccccc12 | inconclusive [inhibitor, single point] | – |
| COc1ccccc1NS(=O)(=O)c1cc(NC(=O)c2cccc(S(=O)(=O)N(C)C)c2)ccc1N1CCOCC1 | active: 2.33 µM | – |
| COc1ccc(CCNC(=O)C2CCN(C(=O)c3ccc(C(C)(C)C)cc3)CC2)cc1 | inconclusive [inhibitor, full curve] | – |
| COC(=O)c1sc(S(=O)(=O)N2CC(C)OC(C)C2)c(C(=O)OC)c1C (stereo unspecified) | inconclusive [inhibitor, single point] | – |
| O=C(/C=C/c1cn(-c2ccccc2)nc1-c1ccc2c(c1)OCCO2)NCCO | inconclusive [inhibitor, partial curve, poor fit] | – |
| CC(C)CCOc1ccc(C(=O)CCNC(C)C(=O)O)cc1 (stereo unspecified) | – | inactive: 6.85% |
| O=C(NCc1ccccn1)c1nc(Cn2ccc([N+](=O)[O-])n2)no1 | – | inactive: 14% |
| CCOc1cc(/C=C/C(=O)c2ccc(C)cc2)ccc1OCC(=O)N(C)C | inconclusive [inhibitor, single point] | – |
| COc1ccc(C(=O)c2coc3ccc(O)c(CN4CCOCC4)c23)cc1 | inconclusive [inhibitor, partial curve] | – |
| O=C(COC(=O)c1c2c(nc3ccccc13)CCCC2)c1cccs1 | inconclusive [inhibitor, partial curve] | – |
| COc1ccc(S(=O)(=O)N(Cc2ccccc2)Cc2nc3ccccc3c(=O)[nH]2)cc1 | inconclusive [inhibitor, partial curve] | – |
| COCCN(C(=O)c1ccco1)c1nc(-c2ccccc2)cs1 | – | inactive: 72.1% |
| O=C1C=C(c2ccc3ncccc3c2)C[C@@H](c2ccc(F)cc2)C1 | inconclusive [inhibitor, single point] | – |
| COc1ccc(NS(=O)(=O)c2cc(OC)ccc2NC(=O)c2cc(C)oc2C)cc1 | inconclusive [inhibitor, single point] | – |
| c1cc(C2CCCCC2)ccc1Oc1nc(N2CCOCC2)nc(N2CCOCC2)n1 | inconclusive [inhibitor, single point] | – |
| Cn1c(C(=O)N2CCN(c3ccc([N+](=O)[O-])cc3)CC2)cc2c(=O)[nH]c3ccccc3c21 | inconclusive [inhibitor, partial curve, poor fit] | – |
| Cc1c(C(=O)NCCN2CCOCC2)oc2ccc(S(=O)(=O)N3CCCCCC3)cc12 | inconclusive [inhibitor, partial curve] | – |
| Cc1ccc(S(=O)(=O)N2CCN(C(=O)c3cc4c(s3)CCCC4)CC2)cc1 | inconclusive [inhibitor, single point] | – |
| COc1cccc(C(=O)Nc2cccc(-c3ccc(N4CCOCC4)nn3)c2)c1OC | inconclusive [inhibitor, single point] | – |
| CCn1cc(/C=C(\NC(=O)c2ccc(C)cc2)C(=O)NCCCN2CCOCC2)c2ccccc21 | inconclusive [inhibitor, single point] | – |
| COc1ccc(N(Cc2ccccc2)S(=O)(=O)c2cccc(C(=O)Nc3ncccc3C)c2)cc1 | inconclusive [inhibitor, partial curve] | – |

| SMILES | Potency | activity change, negative = inhibition |
| --- | --- | --- |
| Cc1cc(C(=O)NC2CCCc3c2cnn3-c2cccc(C)c2C)c(C)o1 (stereo unspecified) | inconclusive [inhibitor, partial curve, poor fit] | – |
| O=C(Nc1cccc(F)c1)c1ccco1 | – | inactive: 110% |
| COc1ccccc1C(=O)N/C(=C\c1ccccc1)C(=O)NC(Cc1ccccc1)C(=O)O (stereo unspecified) | – | inactive: -6.82% |
| COc1ccc(C/C(N)=N/OC(=O)Cc2ccccc2)cc1 | – | inactive: 11.2% |
| Cc1ccc(-n2c(SCC(=O)N3CCOCC3)nnc2-c2cccnc2)cc1C | – | inactive: 0.232% |
| Cc1ccc(-c2cc(C(=O)Nc3cnn(C45CC6CC(CC(C6)C4)C5)c3)no2)cc1 | inconclusive [inhibitor, partial curve, poor fit] | – |
| CCOc1ccc(-n2c(SCc3cc(=O)oc4cc(C)c(C(C)C)cc34)nnc2-c2cccnc2)cc1 | inconclusive [inhibitor, single point] | – |
| CCCCn1c(=O)n(Cc2cccc(F)c2)c(=O)c2c1ncn2Cc1ccco1 | inconclusive [inhibitor, partial curve, poor fit] | – |
| CCOC(=O)C1CCN(C(=O)c2cc(S(=O)(=O)N3CCc4ccccc43)ccc2OC)CC1 | inconclusive [inhibitor, single point] | – |
| O=C(c1c[nH]c(C(=O)C(Cl)(Cl)Cl)c1)c1ccccc1Br | active: 13.1 µM | – |
| Cc1c(/C=N/NC(=O)CNc2ccccc2)c2ccccn2c1C(=O)c1ccncc1 | inconclusive [inhibitor, single point] | – |
| CCCn1c(CCNc2nc(-c3ccc(OC)cc3)cs2)nc2ccccc21 | inconclusive [inhibitor, single point] | – |
| COC(=O)C1=C(O)C2(C(=O)O)CC(C(=O)OC)=C(O)C(C(=O)O)(C1)C2 | inconclusive [inhibitor, partial curve] | – |
| CC(=O)c1ccc(N2CCN(S(=O)(=O)c3ccc4c(c3)CC(C)N4C(C)=O)CC2)cc1 (stereo unspecified) | inconclusive [inhibitor, partial curve] | – |
| CCc1n[nH]c(=S)n1/N=C/c1ccc(NC(C)=O)cc1 | – | inactive: 0% |
| CN(C)CCCN(C(=O)c1ccc(Br)s1)c1nc2cc3c(cc2s1)OCO3 | – | inactive: -10.3% |
| CC(=O)Nc1ccc(NC(=O)C(C)OC(=O)c2cc(S(=O)(=O)N(C)C)ccc2N2CCCC2)cc1 (stereo unspecified) | inconclusive [inhibitor, single point] | – |
| CCOc1ccc(-c2c(C(=O)N/N=C/c3ccc(OC(C)C)cc3)nnn2-c2nonc2N)cc1 | inconclusive [inhibitor, partial curve] | – |
| O=C(NCCc1ccc(Cl)cc1)c1ccc(OCC2CCCO2)cc1 (stereo unspecified) | – | inactive: 31% |
| CCOc1ccc(-n2c(O)c(/C=N/Nc3nnc(C)c(=O)[nH]3)c3ccccc3c2=O)cc1 | inconclusive [inhibitor, single point] | – |
